In EP0687685A1, “PHYSIOLOGICALLY ACTIVE PEPTIDE” (TEIJIN LIMITED, priority 1993, dated 1994):
pIC50: −log10 of the molar value. Part of at least one peptide drawing is inferred or uncertain, most often the ends. Some compounds share one wording; it may come from a single statement. For some assays here: At least one compound was matched to its structure with a doubt left. Positions of bridges follow the written chain, without caps; N, C: chain ends. Residues, ends and D or L forms follow the SMILES beside them. Chains are numbered I, II in the order given. *: point of attachment. Mob = COc1ccc(C*)cc1; Acm = CC(=O)NC*

How the values were obtained:
[1] = molecular target: T1, human type II PLA₂ (Homo sapiens, UniProt P14555); test: Inhibition of binding between heparin and human II-type PLA₂ (heparin-bound plate, biotinated PLA₂)
T1 construct: made in house; host or cells: Sf9 insect cells, baculovirus (AcNPV), vector pAcTJI1; purified from culture supernatant
T1 sequence (P14555 21-144): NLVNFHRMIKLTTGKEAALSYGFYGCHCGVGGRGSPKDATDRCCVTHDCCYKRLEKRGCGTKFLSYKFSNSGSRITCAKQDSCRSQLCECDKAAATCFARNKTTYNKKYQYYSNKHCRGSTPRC
Method: 500 µg of human type II (non-pancreatic) purified in Reference Example 1 was reacted with 2 ml of a solution of 5 mM sulfosuccinyl 6-(biotinamide hexose) in 0.1M NaHCO₃ at a room temperature for one hour, and the product was purified by a heparin Sepharose column to obtain biotinated human type II PLA₂.
50 µl of a phosphate buffered saline (PBS) containing 50 µg/ml poly-L-lysine was added to each well of a 96-well ELISA plate, and after incubation at room temperature for an hour, each well was twice washed with PBS, 50 µl of PBS solution containing 20 µg/ml heparin was added to each well, and a reaction was further carried out at a room temperature for an hour. Each well was twice washed with PBS, 200 µl of PBS solution containing 30 mg/ml bovine serum albumin (BSA) was added to each well, and after reaction at 37°C for an hour, the plate was stored at 4°C.
To each well of a peparin-bound plate prepared in Reference Example 3, 50 µl of a solution containing a peptide obtained in Examples 1 to 10 was added. After incubating at room temperature for 45 minutes, 50 µg/ml biotinated human II-type PLA₂ obtained in Example 2 was added thereon, and reaction was further carried out at room temperature for an hour. Each well was washed three times with PBS containing 0.05% Tween 20, 50 µl of a 3% BSA/PBS solution containing alkaline phosphatase-conjugated streptoavidin (Taga, ×2000 dilution) was added thereon, and a reaction was carried out at a room temperature for an hour. Each well was washed three times with PBS containing 0.05% Tween 20, 100 µl of a 1 mM p-nitrophenylphosphate/1M ethanolamine aqueous solution (pH 9.8) was added thereon, and a reaction was carried out at room temperature for an hour. Absorption of reaction mixture was measured at 405 nm using a microplate reader (Molecular Device Inc). A result is shown in Fig. 9, and IC₅₀ (µM) was also obtained.

[2] = molecular target: T1, human type II PLA₂; test: Enzyme inhibition of human type II PLA₂ in the presence of heparin, radiolabeled synthetic phospholipid (method of Dole); format: biochemical

SMILES | pIC50 [1] | inhibitory activity to binding of human type II PLA₂ to heparin [1] | inhibitory activity to type II PLA₂ enzyme [2]
CC(=O)NCSC[C@H](NC(=O)CNC(=O)[C@H](CCCNC(=N)N)NC(=O)[C@@H](N)CCCCN)C(=O)NCC(=O)N[C@H](C(=O)N[C@@H](CCCCN)C(=O)N[C@@H](Cc1ccccc1)C(=O)N[C@@H](CC(C)C)C(=O)N[C@@H](CO)C(=O)N[C@@H](Cc1ccc(O)cc1)C(=O)N[C@@H](CCCCN)C(=O)N[C@@H](Cc1ccccc1)C(=O)N[C@@H](CO)C(=O)N[C@@H](CSSC[C@H](NC(=O)[C@H](CO)NC(=O)[C@H](Cc1ccccc1)NC(=O)[C@H](CCCCN)NC(=O)[C@H](Cc1ccc(O)cc1)NC(=O)[C@H](CO)NC(=O)[C@H](CC(C)C)NC(=O)[C@H](Cc1ccccc1)NC(=O)[C@H](CCCCN)NC(=O)[C@@H](NC(=O)CNC(=O)[C@H](CSCNC(C)=O)NC(=O)CNC(=O)[C@H](CCCNC(=N)N)NC(=O)[C@@H](N)CCCCN)[C@@H](C)O)C(=O)O)C(=O)O)[C@@H](C)O [Peptide (11)] (I: H-KRGC(Acm)GTKFLSYKFSC-OH / II: H-KRGC(Acm)GTKFLSYKFSC-OH; disulfide I:15-II:15) | 6.12 | strong inhibitory activity | inhibitory activity
CC(=O)NCSC[C@H](NC(=O)[C@H](CO)NC(=O)[C@H](Cc1ccccc1)NC(=O)[C@H](CCCCN)NC(=O)[C@H](Cc1ccc(O)cc1)NC(=O)[C@H](CO)NC(=O)[C@H](CC(C)C)NC(=O)[C@H](Cc1ccccc1)NC(=O)[C@H](CCCCN)NC(=O)[C@@H](NC(=O)CNC(=O)[C@H](CSSC[C@H](NC(=O)[C@H](CO)NC(=O)[C@H](Cc1ccccc1)NC(=O)[C@H](CCCCN)NC(=O)[C@H](Cc1ccc(O)cc1)NC(=O)[C@H](CO)NC(=O)[C@H](CC(C)C)NC(=O)[C@H](Cc1ccccc1)NC(=O)[C@H](CCCCN)NC(=O)[C@@H](NC(=O)CNC(=O)[C@H](CSCNC(C)=O)NC(=O)CNC(=O)[C@H](CCCNC(=N)N)NC(=O)[C@@H](N)CCCCN)[C@@H](C)O)C(=O)O)NC(=O)CNC(=O)[C@H](CCCNC(=N)N)NC(=O)[C@@H](N)CCCCN)[C@@H](C)O)C(=O)O [(14)] (I: H-KRGC(Acm)GTKFLSYKFSC-OH / II: H-KRGCGTKFLSYKFSC(Acm)-OH; disulfide I:15-II:4) |  | strong inhibitory activity | 
CC(C)C[C@@H]1NC(=O)[C@H](Cc2ccccc2)NC(=O)[C@H](CCCCN)NC(=O)[C@H]([C@@H](C)O)NC(=O)CNC(=O)[C@@H](NC(=O)CNC(=O)[C@H](CCCNC(=N)N)NC(=O)[C@@H](N)CCCCN)CSSC[C@@H](C(=O)O)NC(=O)[C@H](CO)NC(=O)[C@H](Cc2ccccc2)NC(=O)[C@H](CCCCN)NC(=O)[C@H](Cc2ccc(O)cc2)NC(=O)[C@H](CO)NC1=O [Peptide (20)] (H-KRGCGTKFLSYKFSC-OH; disulfide 4-15 (inferred); N-terminus and C-terminus assumed) | 7.52 |  | 
COc1ccc(CSC[C@H](NC(=O)CNC(=O)[C@H](CCCNC(=N)N)NC(=O)[C@@H](N)CCCCN)C(=O)NCC(=O)N[C@H](C(=O)N[C@@H](CCCCN)C(=O)N[C@@H](Cc2ccccc2)C(=O)N[C@@H](CC(C)C)C(=O)N[C@@H](CO)C(=O)N[C@@H](Cc2ccc(O)cc2)C(=O)N[C@@H](CCCCN)C(=O)N[C@@H](Cc2ccccc2)C(=O)N[C@@H](CO)C(=O)N[C@@H](CS)C(=O)O)[C@@H](C)O)cc1 [Peptide (6)] (H-KRGC(Mob)GTKFLSYKFSC-OH; N-terminus and C-terminus assumed) | 5.49 |  | 
CC(=O)NCSC[C@H](NC(=O)[C@H](CO)NC(=O)[C@H](Cc1ccccc1)NC(=O)[C@H](CCCCN)NC(=O)[C@H](Cc1ccc(O)cc1)NC(=O)[C@H](CO)NC(=O)[C@H](CC(C)C)NC(=O)[C@H](Cc1ccccc1)NC(=O)[C@H](CCCCN)NC(=O)[C@@H](NC(=O)CNC(=O)[C@H](CSSC[C@H](NC(=O)CNC(=O)[C@H](CCCNC(=N)N)NC(=O)[C@@H](N)CCCCN)C(=O)NCC(=O)N[C@H](C(=O)N[C@@H](CCCCN)C(=O)N[C@@H](Cc1ccccc1)C(=O)N[C@@H](CC(C)C)C(=O)N[C@@H](CO)C(=O)N[C@@H](Cc1ccc(O)cc1)C(=O)N[C@@H](CCCCN)C(=O)N[C@@H](Cc1ccccc1)C(=O)N[C@@H](CO)C(=O)N[C@@H](CSCNC(C)=O)C(=O)O)[C@@H](C)O)NC(=O)CNC(=O)[C@H](CCCNC(=N)N)NC(=O)[C@@H](N)CCCCN)[C@@H](C)O)C(=O)O [Peptide (13)] (I: H-KRGCGTKFLSYKFSC(Acm)-OH / II: H-KRGCGTKFLSYKFSC(Acm)-OH; disulfide I:4-II:4) | 5.96 | strong inhibitory activity | inhibitory activity
COc1ccc(CSC[C@H](NC(=O)CNC(=O)[C@H](CCCNC(=N)N)NC(=O)[C@@H](N)CCCCN)C(=O)NCC(=O)N[C@H](C(=O)N[C@@H](CCCCN)C(=O)N[C@@H](Cc2ccccc2)C(=O)N[C@@H](CC(C)C)C(=O)N[C@@H](CO)C(=O)N[C@@H](Cc2ccc(O)cc2)C(=O)N[C@@H](CCCCN)C(=O)N[C@@H](Cc2ccccc2)C(=O)N[C@@H](CO)C(=O)N[C@@H](CSSC[C@H](NC(=O)[C@H](CO)NC(=O)[C@H](Cc2ccccc2)NC(=O)[C@H](CCCCN)NC(=O)[C@H](Cc2ccc(O)cc2)NC(=O)[C@H](CO)NC(=O)[C@H](CC(C)C)NC(=O)[C@H](Cc2ccccc2)NC(=O)[C@H](CCCCN)NC(=O)[C@@H](NC(=O)CNC(=O)[C@H](CSCc2ccc(OC)cc2)NC(=O)CNC(=O)[C@H](CCCNC(=N)N)NC(=O)[C@@H](N)CCCCN)[C@@H](C)O)C(=O)O)C(=O)O)[C@@H](C)O)cc1 [Peptide (2)] (I: H-KRGC(Mob)GTKFLSYKFSC-OH / II: H-KRGC(Mob)GTKFLSYKFSC-OH; disulfide I:15-II:15) | 6.89 | strong inhibitory activity | inhibitory activity
COc1ccc(CSC[C@H](NC(=O)[C@H](CO)NC(=O)[C@H](Cc2ccccc2)NC(=O)[C@H](CCCCN)NC(=O)[C@H](Cc2ccc(O)cc2)NC(=O)[C@H](CO)NC(=O)[C@H](CC(C)C)NC(=O)[C@H](Cc2ccccc2)NC(=O)[C@H](CCCCN)NC(=O)[C@@H](NC(=O)CNC(=O)[C@H](CSSC[C@H](NC(=O)CNC(=O)[C@H](CCCNC(=N)N)NC(=O)[C@@H](N)CCCCN)C(=O)NCC(=O)N[C@H](C(=O)N[C@@H](CCCCN)C(=O)N[C@@H](Cc2ccccc2)C(=O)N[C@@H](CC(C)C)C(=O)N[C@@H](CO)C(=O)N[C@@H](Cc2ccc(O)cc2)C(=O)N[C@@H](CCCCN)C(=O)N[C@@H](Cc2ccccc2)C(=O)N[C@@H](CO)C(=O)N[C@@H](CSCc2ccc(OC)cc2)C(=O)O)[C@@H](C)O)NC(=O)CNC(=O)[C@H](CCCNC(=N)N)NC(=O)[C@@H](N)CCCCN)[C@@H](C)O)C(=O)O)cc1 [Peptide (4)] (I: H-KRGCGTKFLSYKFSC(Mob)-OH / II: H-KRGCGTKFLSYKFSC(Mob)-OH; disulfide I:4-II:4) | 6.17 | strong inhibitory activity | 
